# From the supplement of paper PMC8728848
# This excerpt belongs to a sample that is enriched for the strongest signals.
# Tests used:
# Assay in all cases: glycan array binding signal (z-score within array); higher = stronger binding
# Conditions in all cases: glycan notation: IUPAC condensed, linker removed
# [1] = system: Fuc(a1-3)[Gal(b1-4)]GlcNAc(b1-6)[Gal(b1-3)GlcNAc(b1-3)]Gal(b1-4)Glc
# How it was run: (§1)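 Glycan array data came from 3228 arrays in the Consortium for Functional Glycomics database, and only arrays with an available protein sequence were kept. Glycan names were put into IUPAC-condensed notation, and columns mapping to the same glycan were averaged. The binding signal is a within-array Z-score, averaged across arrays of one protein sequence run at different concentrations or buffers and across linkers. A negative Z-score can be read as non-binding.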
# [2] = system: Fuc(a1-3)[Gal3S(b1-4)]GlcNAc
# How it was run: as §1
# [3] = system: Fuc(a1-3)[GalNAc(b1-4)]GlcNAc
# How it was run: as §1
# [4] = system: Fuc(a1-2)[GalNAc(a1-4)]Gal(b1-4)GlcNAc
# How it was run: as §1
# [5] = system: Fuc(a1-3)[Gal(b1-4)]GlcNAc(b1-4)Gal(b1-4)[Fuc(a1-3)]GlcNAc(b1-4)Gal(b1-4)[Fuc(a1-3)]GlcNAc
# How it was run: as §1
# [6] = system: Fuc(a1-3)[Gal(b1-4)]GlcNAc(b1-4)Gal(b1-4)[Fuc(a1-3)]GlcNAc
# How it was run: as §1
# [7] = system: Fuc(a1-3)[Gal(b1-4)]Glc6S
# How it was run: as §1
# [8] = system: Fuc(a1-3)[Gal(b1-4)]GlcNAc(b1-2)Man(a1-6)[Gal(b1-4)GlcNAc(b1-2)Man(a1-3)]Man(b1-4)GlcNAc(b1-4)GlcNAc
# How it was run: as §1
substance,measurement,setting,value
MBP (Homo sapiens) (chain not printed),glycan array binding signal (z-score),[1],-0.195
same,glycan array binding signal (z-score),[2],-0.465
same,glycan array binding signal (z-score),[3],-0.264
Galectin-8 C-terminal CRD (Homo sapiens) (chain not printed),glycan array binding signal (z-score),[4],-0.317
same,glycan array binding signal (z-score),[5],-0.312
same,glycan array binding signal (z-score),[6],-0.3
L-Ficolin (Homo sapiens) (chain not printed),glycan array binding signal (z-score),[7],-0.113
same,glycan array binding signal (z-score),[8],0.201
